Screen size: about 46,000 compounds; about 60 (0.1%) were called active. Roughly 3% stayed inconclusive and do not appear here. Calls come from the whole dose curve; as a rule, active = well fitted inhibition curve with a large enough effect; inconclusive = small, poorly fitted or top-dose-only effect; inactive = no such curve, though single readings can be large or run the other way. The list shows a part of the results.
Assay: Primary qHTS assay for Inhibitors of ovarian cancer metastasis using an organotypic tumor microenvironment (TME) model.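 For activity change, negative = inhibition: plate controls were DMSO wells for no effect and tomatine positive control wells for full effect.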 Note: nearly all actives have a fitted effect of over 65% in size.
Conditions: SKOV3ip1-GFP adhesion/invasion on 3D omental model, fluorescence; series mostly up to 45.8 µM; activity change, negative = inhibition: at the top concentration
Outline: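 Adhesion/invasion was scored as fixed GFP-labeled SKOV3ip1 cell counts (488/509 nm), normalized to DMSO and tomatine controls. Cancer cells in serum-free medium, with four compound doses (0.36-46 umol/L), sat 2 hr at RT then 16 hr at 37 C on a 48 hr fibroblast/mesothelial/ECM culture.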

Structure (SMILES) | activity change, negative = inhibition | outcome
CNC(=O)c1ccc(CSc2nc3ccncc3n2Cc2ccc(C)cc2)cc1 | inactive: 7.23% | 
COc1cc(Cl)c(C)cc1NC(=O)c1cnc2c(-c3cccc(C)c3)c(C)nn2c1C | inactive: -1% | 
Cc1ccsc1CN1CCc2nc(N3CCN(c4ccccc4F)CC3)ncc2C1 | inactive: 1.87% | 
Cc1cc(C)cc(N2CCn3c2nc2c3c(=O)n(CCCc3ccccc3)c(=O)n2C)c1 | inactive: -1.14% | 
COCc1cc(C)nc2sc(C(=O)Nc3cc(C)ccc3F)c(N)c12 | inactive: -4.44% | 
CC(C)(C)C(=O)Cn1c(=O)n(-c2ccc(Cl)c(Cl)c2)c(=O)c2c3c(sc21)CCCC3 |  | inactive
COCCCNC(=O)C1CCCN(c2nn3cc(-c4ccc(C)cc4)nc3s2)C1 (stereo not drawn) | inactive: 18.4% | 
Cc1ccc(-c2nc3cc(C(C)C)ccc3o2)cc1NC(=O)c1cc([N+](=O)[O-])ccc1N1CCOCC1 | inactive: -17.7% | 
Cc1ccc(CNC(=O)CCC(=O)N2CCSc3ccccc32)cc1 | inactive: 9.54% | 
COc1ccc(CCNC(=O)Cn2cc(C(=O)c3ccc(F)cc3)c(=O)c3ccc(C)nc32)cc1OC |  | inactive
Cc1ccc(CNC(=O)CCCn2c(=O)c3ccccc3n(Cc3ccc(Cl)cc3)c2=O)cc1 | inactive: -2.6% | 
CN(C(=O)CSc1nnc(-c2ccc([N+](=O)[O-])cc2)o1)c1ccccc1 | inactive: 0.319% | 
O=C(Nc1ccc(F)c(Cl)c1)N1CCC(CN2CCc3ccccc3C2)CC1 | inactive: -3.94% | 
Cc1cccc(-c2nc3ccccc3n3c(-c4ccccc4)c4c(=O)n(C)c(=O)n(C)c4c23)c1 | inactive: -3.47% | 
O=c1cc(N2CCOCC2)oc2c(-c3cccc4c3sc3ccccc34)cccc12 | inactive: -28.9% | 
CCc1ccc(NC(=O)Cn2cnc3sc(C)c(S(=O)(=O)N4CCN(c5ccccc5OC)CC4)c3c2=O)cc1 | inactive: -4.06% | 
COc1ccccc1-c1cc2nc(C)c(CCC(=O)Nc3cc(C)ccc3C)c(C)n2n1 | inactive: 7.77% | 
CCc1cccc(NC(=O)c2ccc(CNS(=O)(=O)c3ccc4c(c3)C(C)(C)C(=O)N4C)cc2)c1 |  | inactive
Cc1ccc(-n2ncc3c(NCC(C)C)ncnc32)c(C)c1 |  | inactive
Cc1cccc(CCNC(=O)C2CCN(c3nc4ccccc4nc3C(F)(F)F)CC2)c1 |  | inactive
O=C(CSc1nc2c(c(=O)[nH]1)CN(Cc1ccc3c(c1)OCO3)CC2)Nc1ccc(F)c(F)c1 | inactive: -5.97% | 
CCOC(=O)c1cnc2ccc(Cl)cc2c1Nc1ccc(N2CCOCC2)cc1 | inactive: 14.9% | 
O=C(Nc1ccc(C(=O)N2CCN(c3ccccc3)CC2)cc1)c1nsc2ccccc12 | inactive: -9% | 
COC(=O)c1ccccc1-n1cc2c(c1-c1cccc(C)c1)c(=O)n(C)c(=O)n2C | inactive: 5.11% | 

Structure (SMILES) | activity change, negative = inhibition | outcome
COc1ccc(-n2nnc(-c3nc(-c4cccs4)no3)c2N)cc1 | inactive: -0.0448% | 
Cc1ccc(C)c(NC(=O)Nc2cccc(-c3cn4cccnc4n3)c2)c1 |  | inactive
CC(C)(C)OC(=O)N1CCC(c2c(C(=O)N3CCOCC3)cnn2-c2cccc(F)c2)CC1 | inactive: -0.689% | 
Cc1oc(-c2ccccc2F)nc1CSc1nnc(C)n2c1cc1occc12 | inactive: 8.66% | 
Cc1ccc(CNC(=O)c2ccc(-c3nc(CS(=O)(=O)c4ccc(C)cc4)c(C)o3)cc2)cc1 | inactive: 3.3% | 
COc1cc2c(cc1O)CCC1C2CC[C@@]2(C)C1CC[C@@H]2O (stereo partly drawn) | inactive: -21.4% | 
CCc1ccccc1NC(=O)C(=O)NCCc1sc(-c2cccc(F)c2)nc1C | inactive: 0.329% | 
Cc1ccc(S(=O)(=O)c2cn(Cc3ccc(F)cc3)c3cc(N4CCCC4)c(F)cc3c2=O)cc1 | inactive: 2.76% | 
Cc1ccc(S(=O)(=O)N2CCC(n3c(C)nc4cccnc43)CC2)c(C)c1 | inactive: -0.121% | 
CCOc1ccc(CCNC(=O)c2cc3sc(CC)cc3n2C)cc1OCC |  | inactive
Cc1[nH]c2ccccc2c1SCCNC(=O)c1ccccc1F | inactive: -7.88% | 
CCOC(=O)C1CCCN(C(=O)c2[nH]c3ccccc3c2Sc2ccc(Cl)cc2)C1 (stereo not drawn) | inactive: -33.9% | 
O=C(NCc1ccccc1Cl)c1cc2cccc3c2n1CCS3 |  | inactive
COc1cccc(CNC(=O)c2ccc3c(c2)nc2n3CCC(C)C2)c1OC (stereo not drawn) |  | inactive
COC(=O)c1ccccc1-n1c(CCC(=O)O)ccc1-c1ccccc1 | inactive: -2.16% | 
CC(C)Oc1ccc(CNC(=O)Cn2ncn3nc(-c4cccs4)cc3c2=O)cc1 | inactive: -5.19% | 
Cc1ccnc(NS(=O)(=O)c2ccc(NC(=O)c3nc(SC(C)C)ncc3Cl)cc2)n1 | inactive: -1.25% | 
COc1ccc(C(=O)NCC(c2ccco2)S(=O)(=O)c2cccs2)cc1OC (stereo not drawn) | inactive: -6.84% | 
COc1ccc(NC(=O)C(CC(C)C)NS(=O)(=O)c2ccc3c(c2)oc(=O)n3C)cc1Cl (stereo not drawn) | inactive: -7% | 
Cc1ccc(S(=O)(=O)c2nc(-c3ccccc3)oc2SCC(=O)NC2CCCCC2)cc1 | inactive: -10.8% | 
O=C(Nc1ccc(F)c(Cl)c1)C1CCCN1S(=O)(=O)c1ccc(F)cc1 (stereo not drawn) | inactive: 4.23% | 
COc1cccc(C2Nc3ccccc3-c3nnc(SCc4ccccc4)nc3O2)c1OC (stereo not drawn) | inactive: -1.04% | 
COc1ccc(N(CC(=O)N2CCN(c3cccc(OC)c3)CC2)S(=O)(=O)c2c(C)noc2C)cc1 |  | inactive
O=C(Cn1c(=O)ccc2cc(S(=O)(=O)N3CCCC3)ccc21)NCc1ccc(F)cc1 |  | inactive

Structure (SMILES) | activity change, negative = inhibition | outcome
CCOc1ccc(NC(=O)Cn2c(=O)n(Cc3nc(-c4ccccc4)no3)c(=O)c3ccccc32)cc1 | inactive: 35.8% | 
CCOC(=O)C1=C(CS(=O)(=O)c2ccc(C)c(C)c2)NC(=O)NC1c1ccccc1OCC (stereo not drawn) | inactive: 25.2% | 
CC1CCCN(C(=O)Cn2c(=O)n(CC3CCC(C(=O)NC(C)C)CC3)c(=O)c3sccc32)C1 (stereo not drawn) | inactive: -6.41% | 
Cn1c(-n2cccc2)c(-c2c(-c3ccc(F)cc3)[nH]c3c2c(=O)[nH]c(=O)n3C)c(=O)[nH]c1=O | inactive: -2.5% | 
CN1C(=O)c2ccccc2Sc2ccc(NC(=O)COc3ccc(Cl)cc3)cc21 |  | inactive
COCCNc1ccc(-c2nc(-c3cccc(C)c3)no2)cc1[N+](=O)[O-] | inactive: -4.25% | 
COc1ccc(CCNC(=O)CSCc2nc(-c3ccc(OC)c(OC)c3)oc2C)cc1OC | inactive: -5.45% | 
COc1cc(OC)c(NC(=O)c2ccc3c(Cl)c4c(nc3c2)CCCC4)cc1Cl |  | inactive
Cn1cc(-c2ccc3ncc(Cc4ccc5ncccc5c4)n3n2)cn1 | inactive: -14.2% | 
COc1cccc(OC)c1Cn1nnc2c(=O)[nH]c(C3CCN(C(=O)c4ccccc4)CC3)nc21 | inactive: 6.52% | 
COc1ccc(-n2ncc3c2ncn2nc(-c4ccc(Cl)cc4Cl)nc32)cc1 | inactive: 2.75% | 
COc1ccc(Cl)cc1NC(=O)CSc1cn(CC(=O)N2CCCC2)c2ccccc12 |  | inactive
COc1ccccc1CNC(=O)c1cc2c(=O)n(Cc3cccs3)ccc2nc1C | inactive: -4.92% | 
Cc1ccc(NC(=O)c2ccc(F)c(S(=O)(=O)N3CCc4ccccc4C3)c2)cc1F |  | inactive
COc1cccc(-c2ccnc3[nH]n(-c4ccccc4)c(=O)c23)c1 | inactive: -24.7% | 
CCOC(=O)c1c(NC(=O)c2nc(SC)ncc2Cl)sc(C)c1C | inactive: 0.627% | 
CSc1ccc(CCNC(=O)c2ccc3c(c2)nc2n3CCOC2)cc1 | inactive: -8.87% | 
Cc1cc(NC(=O)CN2C(=O)CSc3ccc(S(=O)(=O)N(C)C)cc32)ccc1Br |  | inactive
CCOc1ccc(CCNC(=O)c2ccc3c(c2)N(Cc2cccc(Cl)c2)C(=O)c2ccccc2S3(=O)=O)cc1OCC | inactive: -9.55% | 
Cc1c(Cl)cccc1NC(=O)NCCOCCn1c(=O)oc2ccccc21 |  | inactive
CCOC(=O)c1ccc(NC(=O)CN2C(=O)CC(c3ccc(C)c(C)c3)=Nc3ccccc32)cc1 | inactive: -30.4% | 
CCOC(=O)N1CCc2c(sc(NCc3sccc3C)c2C(=O)Nc2ccccc2OCC)C1 | inactive: 7.31% | 
CCN(Cc1ccccc1)C(=O)CCS(=O)(=O)c1ccc2c(c1)oc(=O)n2C | inactive: 8.58% | 
COc1ccc2c(c1)c(=O)c(C(=O)c1ccc(Cl)cc1)cn2CC(=O)Nc1ccc2c(c1)OCO2 | inactive: 12.3% | 

Structure (SMILES) | activity change, negative = inhibition | outcome
CCOC(=O)c1scc(-c2ccc(C)cc2)c1S(=O)(=O)Nc1ccc(F)c(F)c1 | inactive: -0.314% | 
Cn1c(=O)n(CCCc2ccccc2)c(=O)c2c1nc1n2CCN1c1ccccc1 | inactive: 10.8% | 
CCc1ccc(N2C(=O)CS(=O)(=O)C23C(=O)N(Cc2ccccc2F)c2ccccc23)cc1 (stereo not drawn) |  | inactive
CCOc1cc(C2c3c(oc4ccccc4c3=O)C(=O)N2Cc2ccccc2Cl)ccc1O (stereo not drawn) | inactive: -8.12% | 
Cc1sc(NC(=O)COc2ccc(C(C)(C)C)cc2)c(C(=O)OC(C)C)c1C | inactive: -2.44% | 
Cc1cc(-c2nc3ccccc3s2)ccc1NC(=O)c1cc(Cl)ccc1Cl | inactive: 3.46% | 
COc1ccc(NC(=O)N(Cc2ccco2)C2CCN(C(C)=O)CC2)c(OC)c1 | inactive: 3.5% | 
COc1ccc(CNC(=O)C2CCN(S(=O)(=O)c3cn(C)cn3)CC2)cc1 | inactive: -17.6% | 
Cc1ccc(-c2noc(C3CC(=O)N(c4ccc5c(c4)OCCO5)C3)n2)cc1 (stereo not drawn) | inactive: 6.03% | 
Cc1cc(NC(=O)Nc2ccc(N(C)C)cc2)c2cc(F)cc(F)c2n1 | inactive: -6.25% | 
CCOc1ccc(NC(=O)c2cn3c4c(ccc(Cl)c4c2=O)OC(C)C3)cc1 (stereo not drawn) | inactive: 2.02% | 
CCn1cc(C(=O)N2CCN(c3ccccc3)CC2)c(=O)c2cc(S(=O)(=O)N3CCC(C)CC3)ccc21 | inactive: 27.7% | 
COc1ccc(C2CC(=O)c3c([nH]c(C(=O)OCCOc4ccccc4)c3C)C2)cc1OC (stereo not drawn) | inactive: -26.3% | 
COc1cccc(CNC(=O)c2cccn2-c2nnc(N3CCCC3)s2)c1 | inactive: -5.82% | 
CCN1CCN(C(=O)c2cnn(-c3cccc(C)c3)c2C2CCN(C(=O)OC(C)(C)C)CC2)CC1 |  | inactive
COc1cccc(NC(=O)C2CCN(S(=O)(=O)c3cc(-c4noc(C)n4)ccc3C)CC2)c1 | inactive: -24.5% | 
COc1cc(-c2noc(-c3cc(C)[nH]n3)n2)cc(OC)c1OC | inactive: -1.13% | 
COc1ccc(C2CC(=O)N(CC(=O)Nc3ccc(C(F)(F)F)cc3)c3ccccc3S2)cc1 (stereo not drawn) | inactive: 3.64% | 
COC(=O)c1ccc(OC)c(Cn2c(=O)n(-c3ccc(C)cc3)c(=O)c3c2cnn3C)c1 | inactive: -5.74% | 
COc1ccc(C(=O)Nc2ccc3nc(SCC(=O)N4CCOCC4)sc3c2)cc1 |  | inactive
CC1CCN(c2nc3ccc(C(=O)NCc4ccc(Cl)cc4)cc3s2)CC1 |  | inactive
